# This is one part of the list.
# Test system: PfAP2-HC AP2 domain (GST-tagged)
# Experiment: gcPBM binding intensity (ln(normalized median fluorescence intensity)); higher = stronger DNA binding
# Method in brief: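 The highest Masliner-normalised natural-log median intensity across replicate spots of either probe orientation is reported as binding intensity. GST-tagged P. falciparum DNA-binding domains expressed in E. coli were applied for 1 h to an Agilent 4 × 180k array of primer-extended double-stranded 36-bp intergenic genomic probes plus negative controls, and bound protein was detected with Alexa488 anti-GST antibody and scanned at 488 nm.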
row,Sequence,gcPBM binding intensity (ln)
1,AAAATCTAGGTATTTATACACACTAAAATAATATAC [CACACA_site623],9.72
2,CAAATACAGAAACACACACACATATACATATATATA [CACACA_site3498],10.4
3,TATATATATATATGGGGTACAAATGGTCAGTATTAT [XGTACX_site1223],9.93
4,ATGTTATTAAAAAAGGGTACACATCTTTTATGTTAA [XGTACX_site812],9.65
5,ATTACACATATAGTAGTGCAATAACTCCAAAAAAAA,9.57
6,TTTAAATATAATTGGAGTACTTATAATATATATATA [XGTACX_site7247],9.44
7,AATATGTAATAGTGTACACATATATCTGTATTTATG [CACACA_site4252],9.78
8,TTTTAAACAAGACACACACACATATATATATATATA [CACACA_site925],9.98
9,TTATTGTAAATATATGCATGTGCAAAATGAAAAAAA [TGCATGCA_site399],9.69
10,ATGTTTACATATTAGGGTACATAATAAATTGCATAT [XGTACX_site6712],9.53
11,CATGTATTTTATATTACACACTAATATTATATATAT [CACACA_site1508],9.77
12,GAATGTATAAAATGAACACACGCCAAATTAAATGAA [CACACA_site3044],9.8
13,AAAAATAATGCACATATATATAATATGTATATGTAT [CACACA_negctrl_site443],9.75
14,AAAAAATTAAATAATTACAAAAAAATAAAATAAAAA [GTGCAC_negctrl_site638],9.59
15,AATAAACAAATATGTACACACATATACCTATAAATA [CACACA_site7358],9.93
16,ATATTAGATTAATTTACACACAGAAAATGAGATTTT [CACACA_site541],9.79
17,TAGAGTATATATAAATGTACATATTTTATGCTAATT [XGTACX_site7821],9.66
18,AAACAATACATATATTGTACATATATTATATTATAT [XGTACX_site8136],9.84
19,CGGATCTATAAGTGTACACAATCTAGCGAAAAGTTT [CACACA_site4932],9.52

row,Sequence,gcPBM binding intensity (ln)
1,TTAGAAATTCATTTTACACACAATTCAAAAGAATGT [CACACA_site2104],9.71
2,AATTTGAAATAAAGTAGTACAGTATATAAAAATATA [XGTACX_site128],9.74
3,ATAATGATTATAATATGTACATAAATATATATATTA [XGTACX_site5029],9.73
4,ATTATGTTATATATATGTACATATATAATGTTCATA [XGTACX_site6184],9.6
5,AATAAATAAACAAATTAACACACAGAATTTTTTTTT [CACACA_site8485],9.94
6,ATAATTATAAAATAAACACACATATATATTTATATG [CACACA_site440],9.77
7,ATAAAATAAAAAAGTAGTACACACTTCACGATATTT [XGTACX_site8289],9.86
8,GTTATACACATATATACACACATATGTAGATATATA [CACACA_site7529],9.8
9,TTGATATCTTTTTTTTGTACATATATTTATAAGTAA [XGTACX_site3538],9.54
10,TTTTAGAGTGATATATATTAACTTTTAATAAAAAAA [CACACA_negctrl_site611],9.33
11,AAAATATAAGCCACTACACACATATATAAATGTATA [CACACA_site2639],10.5
12,TTTTTTTAAATTATATGTACATAATTTTAATTTTAT [XGTACX_site5086],9.63
13,ATACATATATTTTTATGTACATATATTTTTTTTGTA [XGTACX_site4546],9.71
14,TATAATATTCCTTTTTAACACACATATGAACAAATA [CACACA_site7932],9.58
15,ATAAATAAATAAATACGTACATATATATATATATAT [XGTACX_site8838],9.66
16,TTACCTATTCTAAAATGTACACATTATATATGTGCT [XGTACX_site5776],9.98
17,ACATGTTTCATATGTTGTACTAACTTAAATATAAAT [XGTACX_site6412],9.5
18,ATGATTTTTTTTATTTTTTAGCTAGAGCTAGCTTAT [CACACA_negctrl_site433],9.47
19,TATGGAAGAAAATATACACACAAAAAAAAAAAATGG [CACACA_site4924],9.9

row,Sequence,gcPBM binding intensity (ln)
1,ATATGTTAAAAATTCACACAAAAAAGTATACAGATA [CACACA_site4179],9.92
2,TATGAATGCTTTTATGCACACGTACAAAAATATTAT [CACACA_site8851],9.68
3,TTAACTATAATAAAATGTACATATGTAACATATATA [XGTACX_site7790],9.49
4,AGGTCCTACACCAATAAATATCATATATATATTATA [CACACA_negctrl_site568],9.43
5,TTATAACAAAAAATTAAAGAAAGAGAATAAGTGAAA [CACACA_negctrl_site975],9.64
6,TTGTACATCTTTTGCACACGTAATGTTATTAAAATA [CACACA_site4827],9.72
7,TGTATATTTGTTGTTACACACATATATTTTTTTTTT [CACACA_site128],9.86
8,TCATCATGTATGTACACACATACATATATTATGTAC [CACACA_site1386],9.89
9,CTTTTTGAAATATTAACACACATTTTGTTAATGAAT [CACACA_site6087],9.59
10,TATAAGTAGATAAGGGTGCACAATATAAATATATAG,10.1
11,GGTTAGACGAAATATACATGCAATGGAAAATAAGTT [TGCATGCA_site23],9.74
12,ATATTAATTTCTCATGCATGTTCTTCCCAATTGTAA [TGCATGCA_site425],9.85
13,GGAATAAAGACAGCACGTACATATCTTACGAAGCTC [XGTACX_site3918],9.65
14,CACAAGAAAATTCACACACACACATATATATATATA [CACACA_site3880],10.9
15,TCCTTAATTCAAAAAATAATATCTTATATTTCAAAT [CACACA_negctrl_site1592],9.13
16,TGAAATAAAATTTGTACACACATATTTATTTATATA [CACACA_site6421],9.77
17,TGCATTATATTAAATTTTTTATTTGTTGATGTTATA [GTGCAC_negctrl_site371],9.55
18,AAATAAAAGATATTTTTACACACTTTTGATGAGATC [CACACA_site9000],9.58
19,TATTTTTTTTGTCATATATAAGAAACGCTCTTCTTT [TGCATGCA_negctrl_site127],9.46

# Reference: the supplement of paper PMC11417369
